# Results: PubChem BioAssay (NCATS)
# “And” between values parts separate entries of the source, which are not always exact repeats. Equal entries are not always repeated. Inconclusive means that the source gave no clear call. Such entries were picked first, then a sample of the others. Potencies beside an inconclusive call are fits to weak or partial responses and may not hold up. For some of these results: “Side channel” marks fits to a control or component signal instead of the main read-out. A structure can be active in one record and inactive in another. The source made the active and inactive calls. Unless noted, the call rests on the fitted dose curve; in most records, active means well fitted curve in the direction sought with a large enough effect; inconclusive means small, poorly fitted or top-dose-only effect, or another doubt; inactive means no such curve, though single readings can be large; an effect the other way counts as inactive or inconclusive.
# Assays:
# [1] = qHTS assay to identify small molecule inhibitors of chordoma cells - UCH-1 (AID 1259355); further: nearly all actives have a fitted effect of over 55% in size; on Potency: series mostly up to about 46 µM
# Method in brief: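 Screening used approved and investigational drugs in 15-point titration against 800 seeded cells per well. A fixed combination of auranofin with camptothecin, doxorubicin, rubitecan and topotecan followed compound addition, and growth was scored by CellTiter-Glo after 48hr.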
# [2] = P-glycoprotein substrates identified in KB-8-5-11 adenocarcinoma cell line, qHTS therapeutic library screen (AID 1346987); further: nearly all actives have a fitted effect of over 65% in size
# Method in brief: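 Compounds are pinned in dose-response onto KB-8-5-11 cells (500 cells/well, colchicine-free medium) and left 72 h at 37 degree C. CellTiter-Glo luminescence then yields AC50 values.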
# [3] = qHTS Assay for Identifying Gametocytocidal Compounds (AID 743244);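 on max response: on the % scale 0 is the no-effect control and ±100 the full control effect; actives lower the fluorescent signal which means gametocytes are killed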; settings: P. falciparum 3D7 stage III-V gametocytes, alamarBlue, 72 h; max response: stronger effect = lower value
# Method in brief: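 Using 20,000 stage III–V 3D7 gametocytes per well, compounds were incubated 72 h under 37 °C/5% CO2. Viability was then assessed by 24 h alamarBlue reduction, measured fluorometrically at 525/598 nm.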
# [4] = qHTS assay for cell viability of HEK293 cells (AID 743288); settings: ATP luminescence (CellTiter-Glo), 18 h; further: nearly all actives have a fitted effect of over 50% in size
# Method in brief: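 Viable-cell counts were inferred from luciferase-based ATP content in HEK293 cells seeded at 2,000/well, pre-incubated ≥5 h, then dosed with DMSO-solubilised compounds for 18 h at 37 C.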
# [5] = Natriuretic polypeptide receptor (hNpr1) antagonism - Pilot counterscreen GloSensor control cell line (AID 1347045; calls by dose curve)
# Method in brief: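 Control counterscreen: luciferase cGMP-biosensor HEK293 cells (no Npr1) received compound for 30 min at room temperature after GloSensor substrate loading. Luminescence was measured before and 20 min after soluble guanylyl cyclase activation by 50 uM nitroprusside.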
# [6] = target: Atrial natriuretic peptide receptor 2 (Homo sapiens) (UniProt P20594); assay: Natriuretic polypeptide receptor (hNpr2) antagonism - Pilot subtype selectivity assay (AID 1347050; calls by dose curve)
# Sequence of UniProt P20594 (P20594 whole entry, looked up): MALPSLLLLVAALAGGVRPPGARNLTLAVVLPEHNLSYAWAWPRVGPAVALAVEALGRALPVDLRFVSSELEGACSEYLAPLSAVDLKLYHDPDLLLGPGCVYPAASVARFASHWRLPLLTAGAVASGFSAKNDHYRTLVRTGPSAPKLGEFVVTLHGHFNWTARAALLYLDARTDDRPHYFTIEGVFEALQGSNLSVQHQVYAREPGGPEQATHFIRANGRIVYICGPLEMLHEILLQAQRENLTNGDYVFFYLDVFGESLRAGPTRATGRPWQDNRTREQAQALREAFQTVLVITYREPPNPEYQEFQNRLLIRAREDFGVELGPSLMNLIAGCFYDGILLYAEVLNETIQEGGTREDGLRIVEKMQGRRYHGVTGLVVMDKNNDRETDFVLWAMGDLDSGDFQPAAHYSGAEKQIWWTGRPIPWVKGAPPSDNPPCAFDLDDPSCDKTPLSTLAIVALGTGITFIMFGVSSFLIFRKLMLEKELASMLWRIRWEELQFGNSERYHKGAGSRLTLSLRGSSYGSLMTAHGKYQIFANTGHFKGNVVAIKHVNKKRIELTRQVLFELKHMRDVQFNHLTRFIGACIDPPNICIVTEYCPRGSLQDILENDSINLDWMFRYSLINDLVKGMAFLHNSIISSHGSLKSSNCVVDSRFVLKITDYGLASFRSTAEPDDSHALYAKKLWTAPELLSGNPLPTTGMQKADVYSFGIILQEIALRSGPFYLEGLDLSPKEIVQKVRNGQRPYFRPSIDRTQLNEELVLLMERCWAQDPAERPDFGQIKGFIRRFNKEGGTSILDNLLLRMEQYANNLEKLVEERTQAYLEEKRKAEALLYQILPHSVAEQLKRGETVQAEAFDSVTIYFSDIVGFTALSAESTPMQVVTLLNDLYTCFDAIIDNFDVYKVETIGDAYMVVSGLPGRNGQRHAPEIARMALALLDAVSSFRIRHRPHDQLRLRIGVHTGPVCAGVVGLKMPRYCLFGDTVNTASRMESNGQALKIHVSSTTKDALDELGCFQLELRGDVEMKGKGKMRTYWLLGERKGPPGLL
# Method in brief: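 Luminescence from a genetically encoded cGMP luciferase biosensor in hNpr2-expressing HEK293 cells is read before and 20 min after adding 1 nM hNppC. Test compounds, in interplate 1:5 titrations, are added 30-50 min ahead of the agonist.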
# [7] = NS1 protein of Zika virus - qHTS assay to identify small molecule inhibitors in human HEK 293 cells (AID 1347053); further: nearly all actives have a fitted effect of over 55% in size
# Method in brief: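 TR-FRET signal from two anti-ZIKV NS1 antibodies quantified NS1 in HEK 293 cells 24 h after MR766 infection at MOI = 0.5; compounds were added 1 h before virus. Uninfected cells and infected cells defined the NS1 normalization range.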
# [8] = target: T1, Tyrosine-protein phosphatase non-receptor type substrate 1 (Homo sapiens) + Leukocyte surface antigen CD47 (Homo sapiens) (UniProt P78324+Q08722); assay: CD47-SIRPalpha protein protein interaction - HTRF assay qHTS validation (AID 1347058; active means well fitted curve in the direction sought with a large enough effect in the signal ratio, not every such curve was filed as active; inconclusive means small, poorly fitted or top-dose-only effect, or effect the other way, or a change in a side signal; inactive means no such curve, though single readings can be large or run the other way; the % refers to the signal ratio)
# T1 sequence (P78324 whole entry, looked up, the tested form may be a part): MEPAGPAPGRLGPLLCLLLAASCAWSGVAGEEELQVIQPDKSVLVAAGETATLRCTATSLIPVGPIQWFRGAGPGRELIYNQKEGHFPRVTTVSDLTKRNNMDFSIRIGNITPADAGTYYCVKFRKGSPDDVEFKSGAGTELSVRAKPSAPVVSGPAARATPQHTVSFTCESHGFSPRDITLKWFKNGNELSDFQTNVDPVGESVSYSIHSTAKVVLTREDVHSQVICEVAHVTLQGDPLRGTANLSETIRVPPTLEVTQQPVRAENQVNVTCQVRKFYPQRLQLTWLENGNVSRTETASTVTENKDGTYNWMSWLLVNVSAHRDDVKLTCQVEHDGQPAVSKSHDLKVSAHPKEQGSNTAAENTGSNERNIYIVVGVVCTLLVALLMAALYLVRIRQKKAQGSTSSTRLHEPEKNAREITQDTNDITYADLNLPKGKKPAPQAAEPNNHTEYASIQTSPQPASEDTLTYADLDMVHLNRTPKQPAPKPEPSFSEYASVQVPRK
# T1 sequence (Q08722 whole entry, looked up, the tested form may be a part): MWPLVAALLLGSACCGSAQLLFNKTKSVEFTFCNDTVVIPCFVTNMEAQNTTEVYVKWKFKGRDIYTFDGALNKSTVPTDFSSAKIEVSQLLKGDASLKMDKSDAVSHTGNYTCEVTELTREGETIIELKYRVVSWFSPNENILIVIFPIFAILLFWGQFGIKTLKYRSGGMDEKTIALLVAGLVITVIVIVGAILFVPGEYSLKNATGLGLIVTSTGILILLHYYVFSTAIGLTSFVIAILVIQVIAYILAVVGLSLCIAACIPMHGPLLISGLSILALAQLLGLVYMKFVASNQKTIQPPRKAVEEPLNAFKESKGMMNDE
# Method in brief: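 Soluble extracellular domains (6His-CD47, Avi-tag-biotinylated SIRPalpha) in PBS pH 7.4 with 0.05% IGEPAL CA-630. Compounds were preincubated 30 min at RT with CD47 and anti-His-Eu, then SIRPalpha and SAV-XL665 were added. TR-FRET 665/615 ratio.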
# [9] = target: T1, Tyrosine-protein phosphatase non-receptor type substrate 1 (Homo sapiens) + Leukocyte surface antigen CD47 (Homo sapiens); assay: CD47-SIRPalpha protein protein interaction - LANCE assay qHTS validation (AID 1347057; active means well fitted curve in the direction sought with a large enough effect in the signal ratio, with a control signal flat, not every such curve was filed as active; inconclusive means small, poorly fitted or top-dose-only effect, or effect the other way, or a change in a side signal; inactive means no such curve, though single readings can be large or run the other way; the % refers to the signal ratio)
# Method in brief: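 Inhibition of soluble CD47/SIRPalpha ectodomain association by titrated compounds, measured as 665/615 nm time-resolved FRET ratio after sequential 30 min room-temperature incubations.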
# [10] = target: Atrial natriuretic peptide receptor 1 (Homo sapiens) (UniProt P16066); assay: Natriuretic polypeptide receptor (hNpr1) antagonism - Pilot screen (AID 1347049; calls by dose curve;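 further: agonist-evoked cGMP luminescence read 20 min after hNppA addition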)
# Sequence of UniProt P16066 (P16066 whole entry, looked up): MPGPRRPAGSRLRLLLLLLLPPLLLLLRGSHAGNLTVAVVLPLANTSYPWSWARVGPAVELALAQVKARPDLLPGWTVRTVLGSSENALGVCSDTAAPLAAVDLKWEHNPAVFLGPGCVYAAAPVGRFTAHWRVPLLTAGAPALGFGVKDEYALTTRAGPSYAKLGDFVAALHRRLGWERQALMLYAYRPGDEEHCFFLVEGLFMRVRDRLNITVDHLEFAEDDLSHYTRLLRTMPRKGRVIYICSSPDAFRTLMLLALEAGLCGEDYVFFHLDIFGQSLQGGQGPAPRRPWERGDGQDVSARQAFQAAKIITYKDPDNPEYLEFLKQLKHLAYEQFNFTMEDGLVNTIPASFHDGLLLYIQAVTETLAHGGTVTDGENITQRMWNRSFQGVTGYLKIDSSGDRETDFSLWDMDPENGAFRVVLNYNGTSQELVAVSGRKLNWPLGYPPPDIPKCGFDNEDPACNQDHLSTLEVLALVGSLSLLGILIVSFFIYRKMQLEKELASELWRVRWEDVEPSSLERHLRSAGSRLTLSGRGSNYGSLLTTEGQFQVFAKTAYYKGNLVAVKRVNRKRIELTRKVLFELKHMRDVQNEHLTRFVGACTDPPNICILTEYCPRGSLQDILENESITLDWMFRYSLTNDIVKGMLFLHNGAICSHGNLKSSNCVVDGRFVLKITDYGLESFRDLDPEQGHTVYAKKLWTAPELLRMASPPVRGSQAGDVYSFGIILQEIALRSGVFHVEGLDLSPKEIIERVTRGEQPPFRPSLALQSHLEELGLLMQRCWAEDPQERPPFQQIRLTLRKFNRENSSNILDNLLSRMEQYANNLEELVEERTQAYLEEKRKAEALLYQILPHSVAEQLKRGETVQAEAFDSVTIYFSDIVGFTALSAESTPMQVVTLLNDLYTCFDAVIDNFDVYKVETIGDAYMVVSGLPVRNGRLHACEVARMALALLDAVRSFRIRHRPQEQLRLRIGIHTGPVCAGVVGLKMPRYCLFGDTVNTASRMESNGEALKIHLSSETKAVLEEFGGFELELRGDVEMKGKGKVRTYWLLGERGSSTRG
# Method in brief: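 cGMP-sensor HEK293/hNpr1 cells, 1500/well, plated overnight at 37C. 2% GloSensor reagent, 2 h RT. Compound (23 nL pin transfer) 30 min RT, baseline luminescence pre-read. 0.1 nM hNppA, 20 min RT, post-read.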
# [11] = qHTS assay for cell viability of the p53RE-bla HCT-116 cell line (AID 743292); further: nearly all actives have a fitted effect of over 55% in size
# Method in brief: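 CellSensor p53RE-bla HCT-116 cells, 4,000/well, preincubated 5 h at 37 C, then exposed to compounds in DMSO for 16 h at 37 C. Viability read as CellTiter-Glo luminescence (intracellular ATP) after 30 min at room temperature.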
# Potency means the concentration at half of the fitted maximal effect; tags describe the fitted curve by direction and shape.
smiles,measurement,setting,value
CCCCC(=O)O[C@]1(C(=O)CO)[C@H](C)C[C@H]2[C@@H]3CCC4=CC(=O)C=C[C@]4(C)[C@@]3(F)[C@@H](O)C[C@@]21C,Potency,[1],"inconclusive: 0.0032 µM [cytotoxic, full curve, poor fit]"
same,Potency,[2],inactive
C[C@@H](O)[C@H]1C(=O)N2C(C(=O)O)=C(S[C@@H]3CN[C@H](C(=O)N(C)C)C3)[C@H](C)[C@H]12,Potency,[1],inactive
same,Potency,[2],inactive
C[C@H]1O[C@@H](O[C@H]2CC[C@@]3(C)[C@H](CC[C@@H]4[C@@H]3C[C@@H](O)[C@]3(C)[C@@H](C5=CC(=O)OC5)CC[C@]43O)C2)C[C@H](O)[C@@H]1O[C@H]1C[C@H](O)[C@H](O[C@H]2C[C@H](O)[C@H](O[C@@H]3O[C@H](CO)[C@@H](O)[C@H](O)[C@H]3O)[C@@H](C)O2)[C@@H](C)O1,Potency,[1],active: 0.708 µM
same,Potency,[2],active: 0.651 µM
[O]=[Bi][O]C(=O)[O][Bi]=[O],Potency,[1],inactive
same,Potency,[2],inactive
CC#C[C@]1(O)CC[C@H]2[C@@H]3CCC4=CC(=O)CCC4=C3[C@@H](c3ccc(N(C)C)cc3)C[C@@]21C,Potency,[3],"inconclusive: 11.2 µM [inhibitor, single point]"
same,max response,[3],inconclusive: -30.6% [inhibitor]
same,Potency,[4],"inconclusive: 44.7 µM [cytotoxic, partial curve]"
same,Potency,[1],"inconclusive: 28.2 µM [cytotoxic, partial curve, poor fit]"
same,Potency,[2],"inconclusive: 29.6 µM [inhibitor, single point]"
same,Potency,[5],"inconclusive: 18.5 µM [inhibitor, partial curve]"
same,Potency,[6],"inconclusive: 23.3 µM [inhibitor, single point]"
same,Potency,[7],"inconclusive: 33.2 µM [inhibitor, single point]"
same,Potency,[8],"inconclusive: 16.5 µM [side channel, falling, partial curve]"
O=C1OC2(c3ccc(O)cc3Oc3cc(O)ccc32)c2ccccc21,Potency,[1],"inconclusive: 35.5 µM [cytotoxic, single point]"
same,Potency,[2],inactive
CCOC(=O)[C@H](CCc1ccccc1)N[C@@H](C)C(=O)N1[C@H](C(=O)O)C[C@H]2CCCC[C@@H]21,Potency,[1],inactive
same,Potency,[2],inactive
COC(C(=O)C(O)C(C)O)C1Cc2cc3cc(OC4CC(OC5CC(O)C(O)C(C)O5)C(O)C(C)O4)c(C)c(O)c3c(O)c2C(=O)C1OC1CC(OC2CC(OC3CC(C)(O)C(O)C(C)O3)C(O)C(C)O2)C(O)C(C)O1 (centres undefined),Potency,[1],"inconclusive: 0.178 µM [cytotoxic, full curve]"
same,Potency,[2],inactive
CCCCOC(=O)c1ccc(N)cc1,Potency,[1],inactive
same,Potency,[2],"inconclusive: 16.4 µM [inhibitor, single point]"
CC(C)C(=O)OCC(=O)[C@@]12O[C@H](C3CCCCC3)O[C@@H]1C[C@H]1[C@@H]3CCC4=CC(=O)C=C[C@]4(C)[C@H]3[C@@H](O)C[C@@]12C,Potency,[1],"inconclusive: 0.0035 µM [cytotoxic, full curve, poor fit]"
same,Potency,[2],"inconclusive: 14.6 µM [inhibitor, single point]"
C=CCSSSCC=C,Potency,[1],"inconclusive: 11.2 µM [cytotoxic, partial curve, poor fit]"
same,Potency,[2],inactive
CO[C@H]1C[C@@H]2CC[C@@H](C)[C@@](O)(O2)C(=O)C(=O)N2CCCC[C@H]2C(=O)O[C@H]([C@H](C)C[C@@H]2CC[C@@H](O)[C@H](OC)C2)CC(=O)[C@H](C)C=C(C)[C@@H](O)[C@@H](OC)C(=O)[C@H](C)C[C@H](C)/C=C/C=CC=C1C,Potency,[1],"inconclusive: 17.8 µM [cytotoxic, partial curve, poor fit]"
same,Potency,[2],"inconclusive: 18.4 µM [inhibitor, single point]"
C[C@H]1C[C@H]2[C@@H]3CCC4=CC(=O)C=C[C@]4(C)[C@@]3(F)[C@@H](O)C[C@]2(C)[C@@]1(O)C(=O)CO,Potency,[1],"inconclusive: 0.0251 µM [cytotoxic, full curve, poor fit]"
same,Potency,[2],inactive
CC(CN(C)C)C(C)(O)Cc1ccc(Cl)cc1 (centres undefined),Potency,[1],inactive
same,Potency,[2],inactive
CC1=C(/C=C/C(C)=C/C=C/C(C)=C/C(=O)O)C(C)(C)CCC1,Potency,[1],"inconclusive: 0.0178 µM [cytotoxic, full curve, poor fit]"
same,Potency,[2],"inconclusive: 5.8 µM [inhibitor, single point]"
same,Potency,[5],"inconclusive: 0.0293 µM [inhibitor, full curve, poor fit]"
CN1CCN(C(=O)C2CCCCC2)CC1,Potency,[1],inactive
same,Potency,[2],inactive
NS(=O)(=O)Cc1noc2ccccc12,Potency,[1],inactive
same,Potency,[2],inactive
C/C=C(/C(=C/C)c1ccc(O)cc1)c1ccc(O)cc1,Potency,[1],"inconclusive: 0.004 µM [cytotoxic, full curve, poor fit]"
same,Potency,[2],"inconclusive: 7.85 µM [inhibitor, single point]"
OCc1ccccc1O,Potency,[1],"inconclusive: 0.0009 µM [cytotoxic, full curve, poor fit]"
same,Potency,[2],inactive
O=C(O)Cc1nn(Cc2ccc(Br)cc2F)c(=O)c2ccccc12,Potency,[1],inactive
same,Potency,[2],inactive
O=C1C(=O)c2ncccc2-c2cccnc21,Potency,[1],"inconclusive: 14.1 µM [cytotoxic, partial curve, poor fit]"
same,Potency,[2],active: 1.16 µM
O=C1c2ccccc2S(=O)(=O)N1CCCCN1CCN(c2ncccn2)CC1,Potency,[1],inactive
same,Potency,[2],inactive
Oc1ccc(C(O)CNCCCCCCNCC(O)c2ccc(O)c(O)c2)cc1O (centres undefined),Potency,[1],inactive
same,Potency,[2],inactive
CC1=CCC(C(C)(C)O)CC1 (centres undefined),Potency,[1],"inconclusive: 2.82 µM [cytotoxic, partial curve, poor fit]"
same,Potency,[2],inactive
CN(C)CC/C=C1\c2ccccc2Sc2ccc(Cl)cc21,Potency,[1],"inconclusive: 28.2 µM [cytotoxic, single point]"
same,Potency,[2],"inconclusive: 23.1 µM [inhibitor, partial curve]"
CC(C)C[C@H]1C(=O)N2CCC[C@H]2[C@]2(O)O[C@](NC(=O)[C@@H]3C=C4c5cccc6[nH]c(Br)c(c56)C[C@H]4N(C)C3)(C(C)C)C(=O)N12,Potency,[1],inactive
same,Potency,[2],"inconclusive: 20.6 µM [inhibitor, single point]"
same,Potency,[5],"inconclusive: 5.21 µM [inhibitor, single point]"
same,Potency,[7],"inconclusive: 31.6 µM [inhibitor, single point]"
same,Potency,[9],"inconclusive: 14.7 µM [side channel, falling, single point]"
same,Potency,[8],"inconclusive: 14.7 µM [side channel, falling, partial curve, poor fit]"
CC[C@@H](C(=O)[C@@H](C)[C@@H](O)[C@H](C)[C@@H]1O[C@@H]([C@@H](CC)C(=O)O)CC[C@@H]1C)[C@H]1O[C@]2(C=C[C@@H](O)[C@]3(CC[C@@](C)([C@H]4CC[C@](O)(CC)[C@H](C)O4)O3)O2)[C@H](C)C[C@@H]1C,Potency,[1],active: 11.2 µM
same,Potency,[2],"inconclusive: 3.26 µM [inhibitor, partial curve, poor fit]"
NCc1ccccc1CC(=O)N[C@@H]1C(=O)N2C(C(=O)O)=C(CSc3nnnn3CC(=O)O)CS[C@H]12,Potency,[1],"inconclusive: 0.0501 µM [cytotoxic, full curve, poor fit]"
same,Potency,[2],inactive
CNCCC=C1c2ccccc2CCc2ccccc21,Potency,[3],"inconclusive: 22.4 µM [inhibitor, single point] and inconclusive: 4.47 µM [inhibitor, partial curve]"
same,Potency,[1],"inconclusive: 11.2 µM [cytotoxic, partial curve, poor fit]"
same,Potency,[2],"inconclusive: 18.4 µM [inhibitor, single point]"
same,Potency,[5],"inconclusive: 6.56 µM [inhibitor, partial curve]"
same,Potency,[6],"inconclusive: 14.7 µM [inhibitor, single point]"
CCCN(CCC)CCc1cccc2c1CC(=O)N2,Potency,[1],"inconclusive: 1.41 µM [cytotoxic, full curve, poor fit]"
same,Potency,[2],inactive
CSc1ccc2c(c1)N(CCC1CCCCN1C)c1ccccc1S2 (centres undefined),Potency,[3],active: 2.51 µM
same,Potency,[1],"inconclusive: 3.98 µM [cytotoxic, full curve, poor fit]"
same,Potency,[2],active: 18.4 µM
same,Potency,[5],"inconclusive: 26.1 µM [inhibitor, single point]"
same,Potency,[10],"inconclusive: 0.849 µM [inhibitor, single point]"
same,Potency,[6],"inconclusive: 23.3 µM [inhibitor, single point]"
same,Potency,[7],"inconclusive: 35.5 µM [inhibitor, single point]"
O=C1c2ccccc2C(=O)C1c1ccccc1,Potency,[1],"inconclusive: 15.8 µM [cytotoxic, partial curve, poor fit]"
same,Potency,[2],inactive
Clc1ccc2c(c1)C(N1CCNCC1)=Nc1ccccc1O2,Potency,[3],active: 0.794 µM
same,Potency,[1],"inconclusive: 25.1 µM [cytotoxic, partial curve, poor fit]"
same,Potency,[2],"inconclusive: 13 µM [inhibitor, partial curve] and active: 20.6 µM"
same,Potency,[5],"inconclusive: 13.1 µM [inhibitor, single point]"
same,Potency,[10],"inconclusive: 7.57 µM [inhibitor, full curve, poor fit]"
same,Potency,[7],"inconclusive: 31.6 µM [inhibitor, single point]"
CC(CN1c2ccccc2Sc2ccccc21)N(C)C (centres undefined),Potency,[11],"inconclusive: 0.794 µM [rising, full curve, poor fit]"
same,Potency,[5],"inconclusive: 0.261 µM [inhibitor, full curve, poor fit]"
Oc1c(I)cc(Cl)c2cccnc12,Potency,[11],"inconclusive: 17.8 µM [cytotoxic, partial curve, poor fit]"
O=C(CCCN1CCC(O)(c2cccc(C(F)(F)F)c2)CC1)c1ccc(F)cc1,Potency,[5],"inconclusive: 26.1 µM [inhibitor, single point]"
